This passage reports GI50 and TGI results from PubChem BioAssay (NCI).

For this assay, the system named is NCI-H322M lung. Put plainly: NCI anticancer screen, dose series, 48 h.

The structures appear in SMILES notation.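 Results reflect a 48-hour exposure of cells in 96-well plates to compound at five concentrations. GI50 = concentration required for 50% inhibition of growth. TGI is the concentration that stops growth completely.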

`CC(=O)c1ccc(Nc2nc(SCCC(C)C)nc(-c3ccc(F)cc3)c2C#N)cc1`: the GI50 was 7.18 µM and the TGI amounted to 56.4 µM.
